Assay results: the RNAGym collection of RNA variant scans (doi:10.1093/nar/gkz1192)
The source gives no read counts; variants with many changes may rest on few reads.

B1: CPEB3 Ribozyme (parent)
chain: UAACAGGGGGCCACAGCAGAAGCGUUCACGUCGCAGCCCCUGUCAGAUUCUGGUGAAUCUGCGAAUUCUGCUGUAUAUCUC

Variants of: B1
Assay: self-cleavage, relative activity (ratio to wild type); higher = more cleavage; in vitro, sequencing
How it was run: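 Libraries of CPEB3 self-cleaving ribozyme mutants came from rounds of error-prone PCR and carried barcodes, which DNA sequencing matched to variants. In vitro transcription used T7 RNA polymerase at 37°C for 5 hours, with a further 15 min in DNase I before EDTA stopped the reaction; the ribozymes cleaved during both steps. The RNA was reverse transcribed with template switching and sequenced on Illumina. Relative activity is the cleaved/total read fraction of a variant divided by that of the unmutated ribozyme, averaged over three batches with at least 5 reads.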

Variant	self-cleavage
A18G G46A U74A	0.29
A18G G46U U69C	0.26
A18G G46U U69C U74C	0.46
A18G G52A U60G U72C	0.37
A18G G52U A64G U67A U80A	0.09
A18G G52U U76C	0.99
A18G G55A G63A	0.33
A18G G55A U66C U72A	0.17
A18G G55A U67C U80A	0.07
A18G G55A U74A	1.13
A18G G55C A64G	0.19
A18G G61A A65U C71U	0.31
A18G G63A A75G A77G	0.24
A18G G63U U67C	0.27
A18G U25A A28U U60C U72G A75G	0.1
A18G U25A A64G	0.22
A18G U25A A64G U74C	0.31
A18G U25A C29U C50U U54A	0.13
A18G U25A C32U U41A C50U	0.24
A18G U25A U26C U49C U66C	0.08
A18G U25A U41A	0.13
A18G U25A U43C A47U U58C	0.13
A18G U25A U48A A65G A77U U78A	0.05
A18G U25A U49C U67C U78C	0.08

Variant	self-cleavage
A18G U25A U54A U74G A75G	0.19
A18G U25A U78C	0.09
A18G U25C A28G A35G U67A	0.03
A18G U25C A28G A35U A56G	0.06
A18G U25C A28U	0.26
A18G U25C A35G U43C	0.3
A18G U25C A35U U41C A47C A57G U74A	0
A18G U25C A45G U60A U66A	0.06
A18G U25C A45U	0.39
A18G U25C A45U U60A U69C U72A	0.13
A18G U25C A47G C81G	0.27
A18G U25C A56G U58C	0.07
A18G U25C A64G U66C	0.37
A18G U25C A64U A75G A77G	0.1
A18G U25C A64U A77C	0.46
A18G U25C C32U U41C U49C A56G	0.06
A18G U25C C32U U72A	0.16
A18G U25C C37A U54A A64C U72C	0.05
A18G U25C C37U U51A C59U U72A	0.06
A18G U25C C38G U43C A45G U74A	0.05
A18G U25C C38U	0.07
A18G U25C C50A	0.14
A18G U25C C81A	0.58
A18G U25C G33A U41A U51A U72A	0

Variant	self-cleavage
A18G U25C G46A A64G U69A	0.14
A18G U25C U26A U60C	0.27
A18G U25C U26C U41A U43A U49A	0.21
A18G U25C U31A U43C U51C G61A A75U	0.04
A18G U25C U31A U54A U67C U72C A77G	0.08
A18G U25C U31C A45G U54A U66C	0.09
A18G U25C U31C U48C U78A	0.37
A18G U25C U41A U58C U80C	0.25
A18G U25C U41C U74A	0.42
A18G U25C U43A U58G	0.07
A18G U25C U43C U48C	0.12
A18G U25C U43C U58C U74A A75C	0.26
A18G U25C U43C U67A	0.05
A18G U25C U49C U72A U78G	0.04
A18G U25C U51C U58C	0.03
A18G U25C U58A U66C A77U U80A	0.03
A18G U25C U60A	0.13
A18G U25C U60A A64U	0.08
A18G U25C U60C C81G	0.29
A18G U25C U60C U72C	0.14
A18G U25C U67C	0.06
A18G U25C U72A A75G	0.17
A18G U25C U74C	0.36
A18G U25C U78A	0.34

Variant	self-cleavage
A18G U25G A56G G73U	0.25
A18G U25G A64G	0.32
A18G U25G G73U	0.59
A18G U26A A28G G46A A56G U80A	0.08
A18G U26A A45G	0.32
A18G U26A A45G A64U A75G U78C	0.1
A18G U26A A45G U67G	0.13
A18G U26A A56G	0.5
A18G U26A A64G A65U	0.23
A18G U26A C27U A77G	0.17
A18G U26A C29G G33A U51A U60C U72G	0.05
A18G U26A C34U A45G U49C A56U	0.05
A18G U26A G53U	0.31
A18G U26A U41C A45U	0.24
A18G U26A U41C U48C A64U U67A	0.12
A18G U26A U41G	0.09
A18G U26A U43A U58C	0.18
A18G U26A U43C A75G	0.13
A18G U26A U48C	0.3
A18G U26A U54C	0.53
A18G U26C A28G U49C	0
A18G U26C A28U U54A	0.08
A18G U26C A35U A47G U60C U78C	0.07
A18G U26C A35U A64G	0.11

Variant	self-cleavage
A18G U26C A45G	0.07
A18G U26C A45G U54C U72C	0.3
A18G U26C A45U U51C	0.31
A18G U26C A47G C71A	0.12
A18G U26C A57G U58A U69A U74C	0.11
A18G U26C A57G U69A U72C	0.16
A18G U26C C32U C40G G46U U67C U78C	0.16
A18G U26C C34U U48C U51A A64U	0.06
A18G U26C C40A U54C	0.18
A18G U26C G33A A77U	0.06
A18G U26C G33C	0.21
A18G U26C G63A U66C C71G U78C	0.02
A18G U26C G73C U78C	0.64
A18G U26C U31A U41C U49C U66C	0.16
A18G U26C U31C U72A U80C	0.06
A18G U26C U31C U72C	0.1
A18G U26C U41A A56G	0.23
A18G U26C U41C U43C U66A	0.07
A18G U26C U43A U49A A57U	0.09
A18G U26C U48C A56G U80C	0.47
A18G U26C U49C A56G A65G	0
A18G U26C U51A U78A	0.3
A18G U26C U54A A75G U80A	0.13
A18G U26C U58C U69C	0.22

Variant	self-cleavage
A18G U26C U60C U72A	0.12
A18G U26C U69A	0.19
A18G U26G U43G A56U	0.08
A18G U31A A35U U69A	0.07
A18G U31A A57G	0.44
A18G U31A C37A U54C U60G	0.08
A18G U31A C38A U54A U69A	0.18
A18G U31A C38U	0.43
A18G U31A C62U G63A	0.17
A18G U31A G53A U66A C68G U78C	0.08
A18G U31A U41C	0.31
A18G U31A U43A C71G	0.25
A18G U31A U48C	0.38
A18G U31A U48C U49C	0.09
A18G U31A U48C U51A A64G	0.11
A18G U31A U49C G55A	0.14
A18G U31A U54C U72C	0.31
A18G U31A U58A	0.1
A18G U31A U60C A65G A77C U78C	0.11
A18G U31A U74G	0.62
A18G U31C A35C A65G A77C	0.07
A18G U31C A35U	0.19
A18G U31C A35U A75G	0.05
A18G U31C A35U U58C G61A U67C	0.08

Variant	self-cleavage
A18G U31C A45G G55A	0.07
A18G U31C A45G U51C A64G U67C	0.21
A18G U31C A47G U49G U66C U72C U78C	0.23
A18G U31C A56G	0.35
A18G U31C A56G U69C	0.83
A18G U31C A77G	0.1
A18G U31C C34U U41C	0.18
A18G U31C C62G U69C U78A	0.07
A18G U31C G53A A64G U74A	0.11
A18G U31C G55A U67A	0.11
A18G U31C U41A A45G U54C A75U U76C	0.16
A18G U31C U41A U49C C68A U72C	0.09
A18G U31C U41A U76C A77G	0.26
A18G U31C U41C A57G A64C U67C	0.07
A18G U31C U41C U48A	0.35
A18G U31C U43C U48C U54A U58C	0.15
A18G U31C U51A A57U A64U	0.14
A18G U31C U60A U80C	0.17
A18G U31C U69A U72C	0.18
A18G U31C U78C	0.24
A18G U31G A35G A45U	0.79
A18G U41A A45G A56U U60C	0
A18G U41A C44U A65G U76A U80C	0.08
